# Laboratory results: US20220175920A1 (INSERM INSTITUT NATIONAL DE LA SANTE ET DE LA RECHERCHE …, published 2022)
# B1: anti-CD40 11B6-CD40L IgG4 (human CD40L fused via Flex-v1 to the light chain C-terminus) (other)
# heavy: EVQLVQSGAEVKKPGASVKISCKASGYSFTGYYMHWVKQAHGQGLEWIGRINPYNGATSYNQNFKDRATLTVDKSTSTAYMELSSLRSEDTAVYYCAREDYVYWGQGTTVTVSSAKTKGPSVFPLAPCSRSTSESTAALGCLVKDYFPEPVTVSWNSGALTSGVHTFPAVLQSSGLYSLSSVVTVPSSSLGTKTYTCNVDHKPSNTKVDKRV[in this place human IgG4 Fc with changes and a few adjoining residues]
# light: DVVMTQSPLSLPVTLGQPASISCRSSQSLVHSNGNTYLHWYQQRPGQSPRLLIYKVSNRFSGVPDRFSGSGSGTDFTLKISRVEAEDVGVYFCSQSTHVPWTFGGGTKLEIKRTVAAPSVFIFPPSDEQLKSGTASVVCLLNNFYPREAKVQWKVDNALQSGNSQESVTEQDSKDSTYSLSSTLTLSKADYEKHKVYACEVTHQGLSSPVTKSFNRGECASQTPTNTISVTPTNNSTPTNNSNPKPNPASMQKGDQNPQIAAHVISEASSKTTSVLQWAEKGYYTMSNNLVTLENGKQLTVKRQGLYYIYAQVTFCSNREASSQAPFIASLCLKSPGRFERILLRAANTHSSAKPCGQQSIHLGGVFELQPGASVFVNVTDPSQVSHGTGFTSFGLLKL
# notes: also called PAB3470; 11B6-CD40L mAb
# Tests used:
# [1] = biological target: T1, cohesin-human CD40 ectodomain protein (P3398) (human); assay: SPR, mAb immobilized on protein A/G surface, soluble human CD40 ectodomain in the liquid phase
# T1 construct: SPR analyte; also called soluble human CD40 ectodomain; liquid phase soluble human CD40 ectodomain; not shown: cohesin domain of P3398 and its junction to CD40
# [2] = biological target: T2, human CD40 on cells (B cells, MDDCs, stably transfected CHO cells) (human, UniProt P25942 21-277); assay: cell-based or functional assay
# [3] = biological target: human CD40 ectodomain fused to FAS transmembrane and intracellular domains, on CHO cells (human); assay: cell-based or functional assay
# [4] = biological target: T2, human CD40 on cells (B cells, MDDCs, …); assay: cell-based or functional assay; remark: listed apart in the source
# T2 sequence (P25942 21-277): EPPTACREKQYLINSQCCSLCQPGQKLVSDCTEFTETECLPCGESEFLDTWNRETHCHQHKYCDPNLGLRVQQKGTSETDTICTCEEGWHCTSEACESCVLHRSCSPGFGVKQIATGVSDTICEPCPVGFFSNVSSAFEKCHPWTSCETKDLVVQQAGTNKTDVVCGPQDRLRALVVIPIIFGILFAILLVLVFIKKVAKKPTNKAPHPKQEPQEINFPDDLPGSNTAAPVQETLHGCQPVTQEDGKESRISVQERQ
binder,measurement,setting,value
B1,fold decrease of the off-rate against the parental anti-CD40 11B6 mAb,[1],~15 fold
same,fold increase in potency for B cell proliferation against the parent mAb,[2],> 1000 fold
same,fold more active for MDDC cytokine secretion than Mega sCD40L co-administered with 10 nM anti-CD40 11B6,[2],100 fold
same,fold more robust increase for B cell proliferation than 11B6 mAb co-administered with sCD40L,[2],> 10 fold
same,EC50 of killing of CD40-FAS CHO cells (loss of MTT reduction),[3],2.5 pM
same,"EC50/11B6-CD40L, IL-12 p40",[4],1 ratio
same,"EC50/11B6-CD40L, IL-15",[4],1 ratio
same,"EC50/11B6-CD40L, TNFα",[4],1 ratio
